# These are yes or no findings as the source states them, for the method shown. In cells and extracts the contact can be indirect. Some binding calls cover weakened binding; strength is not graded here. For some of these results: Sequences can lack the tags named with a protein.
# By UniProt entry, the sequences of proteins in these tests, tags left out. Where a name states a change or a piece, a line headed by the entry shows the natural chain unless it says otherwise. Chains listed by the source or under a name are the forms on record and can include a tag or linker.
# endogenous MEF2C of mouse pre-B cells (mouse (endogenous in AMuLV-transformed pre-B cells)) (Q8CFN5, form named): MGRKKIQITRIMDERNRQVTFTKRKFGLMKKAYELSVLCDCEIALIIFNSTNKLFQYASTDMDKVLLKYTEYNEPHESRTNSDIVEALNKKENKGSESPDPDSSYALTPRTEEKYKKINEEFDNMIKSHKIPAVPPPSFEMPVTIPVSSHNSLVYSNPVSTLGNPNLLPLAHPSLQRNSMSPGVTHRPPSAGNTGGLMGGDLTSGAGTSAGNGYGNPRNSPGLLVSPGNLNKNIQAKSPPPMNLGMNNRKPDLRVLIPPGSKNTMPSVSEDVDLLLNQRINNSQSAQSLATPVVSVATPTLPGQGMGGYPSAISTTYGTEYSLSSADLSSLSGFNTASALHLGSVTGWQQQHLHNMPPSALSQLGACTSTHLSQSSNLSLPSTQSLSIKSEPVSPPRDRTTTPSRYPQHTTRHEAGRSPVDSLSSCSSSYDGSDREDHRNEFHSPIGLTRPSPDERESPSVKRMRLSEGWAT
# UniProt Q06413: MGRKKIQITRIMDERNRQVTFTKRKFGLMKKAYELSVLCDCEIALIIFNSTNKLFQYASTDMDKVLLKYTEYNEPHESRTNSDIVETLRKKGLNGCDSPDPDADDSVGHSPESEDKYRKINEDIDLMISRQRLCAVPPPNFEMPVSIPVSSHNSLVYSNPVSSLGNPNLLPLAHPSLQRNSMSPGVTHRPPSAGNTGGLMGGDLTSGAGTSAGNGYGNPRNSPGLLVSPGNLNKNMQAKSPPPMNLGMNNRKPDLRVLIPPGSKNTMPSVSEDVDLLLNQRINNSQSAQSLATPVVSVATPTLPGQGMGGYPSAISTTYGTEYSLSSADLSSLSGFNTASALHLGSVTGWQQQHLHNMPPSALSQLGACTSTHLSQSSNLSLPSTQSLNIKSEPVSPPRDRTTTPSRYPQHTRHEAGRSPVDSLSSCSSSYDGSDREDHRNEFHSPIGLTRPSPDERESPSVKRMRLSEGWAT
# Assays:
# [1] = target: FLAG-tagged WT MEF2C (myocyte enhancer factor 2C) (UniProt Q8CFN5); assay: co-IP; 293T cells co-transfected; lysis in 50mM HEPES, 140mM NaCl, 1mM EDTA, 0.5% Triton-X, 0.5% sodium deoxycholate; overnight IP with anti-FLAG M2 (MEF2C as bait); washed with high-salt lysis buffer (500mM NaCl); blotted with anti-Myc or anti-V5; for WT MEF2C and EBF1 also with benzonase treatment, which did not prevent co-IP
# [2] = target: endogenous MEF2C of mouse pre-B cells (mouse (endogenous in AMuLV-transformed pre-B cells)) (UniProt Q8CFN5); assay: co-IP; endogenous proteins; mouse pre-B cells and human BJAB cells cross-linked for 10 minutes with 1% formaldehyde; overnight IP with MEF2C antibodies (Cell Signaling 5030) or control normal rabbit IgG; washed with high-salt lysis buffer; immunoblotted with EBF1 antibody
# [3] = target: endogenous MEF2C of human BJAB cells (human (endogenous in BJAB)) (UniProt Q06413); assay: as above
binding [1],Binder,further results
no binding,"Myc-tagged E47 (E2A isoform) (protein, UniProt E9PVV2 1-649) MMNQSQRMAPVGSDKELSDLLDFSMMFPLPVANGKSRPASLGGTQFAGSGLEDRPSSGSWGSSDQNSSSFDPSRTYSEGAHFSDSHSSLPPSTFLGAGLGGKGSERNAYATFGRDTSVGTLSQAGFLPGELSLSSPGPLSPSGIKSSSQYYPSFPSNPRRRAADGGLADTQPKKVRKVPPGLPSSVYPPSSGDSYSRDAAAYPSAKTPSSAYPSPFYVADGSLHPSAELWSTPSQVGFGPMLGDGSSPLPLAPGSSSVGSGTFGGLQQQDRMGYQLHGSEVNGSLPAVSSFSAAPGTYSGTSGHTPPVSGAAAESLLGTRGTTASSSGDALGKALASIYSPDHSSNNFSPSPSTPVGSPQGLPGTSQWPRAGAPSALSPNYDAGLHGLSKMEDRLDEAIHVLRSHAVGTASDLHGLLPGHGALTTSFTGPMSLGGRHAGLVGGSHPEEGLTSGASLLHNHASLPSQPSSLPDLSQRPPDSYSGLGRAGTTAGASEIKREEKEDEEIASVADAEEDKKDLKVPRTRTSSTDEVLSLEEKDLRDRERRMANNARERVRVRDINEAFRELGRMCQLHLKSDKAQTKLLILQQAVQVILGLEQQVRERNLNPKAACLKRREEEKVSGVVGDPQLALSAAHPGLGEAHNPAGHL",–
binds,"Myc-tagged EBF1 (early B cell factor-1) (protein, UniProt Q07802 1-591) MFGIQESIQRSGSSMKEEPLGSGMNAVRTWMQGAGVLDANTAAQSGVGLARAHFEKQPPSNLRKSNFFHFVLALYDRQGQPVEIERTAFVGFVEKEKEANSEKTNNGIHYRLQLLYSNGIRTEQDFYVRLIDSMTKQAIVYEGQDKNPEMCRVLLTHEIMCSRCCDKKSCGNRNETPSDPVIIDRFFLKFFLKCNQNCLKNAGNPRDMRRFQVVVSTTVNVDGHVLAVSDNMFVHNNSKHGRRARRLDPSEGTPSYLEHATPCIKAISPSEGWTTGGATVIIIGDNFFDGLQVIFGTMLVWSELITPHAIRVQTPPRHIPGVVEVTLSYKSKQFCKGTPGRFIYTALNEPTIDYGFQRLQKVIPRHPGDPERLPKEVILKRAADLVEALYGMPHNNQEIILKRAADIAEALYSVPRNHNQLPALANTSVHAGMMGVNSFSGQLAVNVSEASQATNQGFTRNSSSVSPHGYVPSTTPQQTNYNSVTTSMNGYGSAAMSNLGGSPTFLNGSAANSPYAIVPSSPTMASSTSLPSNCSSSSGIFSFSPANMVSAVKQKSAFAPVVRPQTSPPPTCTSTNGNSLQAISGMIVPPM",–
–,"endogenous EBF1 of mouse pre-B cells (protein, UniProt Q07802 1-591) MFGIQESIQRSGSSMKEEPLGSGMNAVRTWMQGAGVLDANTAAQSGVGLARAHFEKQPPSNLRKSNFFHFVLALYDRQGQPVEIERTAFVGFVEKEKEANSEKTNNGIHYRLQLLYSNGIRTEQDFYVRLIDSMTKQAIVYEGQDKNPEMCRVLLTHEIMCSRCCDKKSCGNRNETPSDPVIIDRFFLKFFLKCNQNCLKNAGNPRDMRRFQVVVSTTVNVDGHVLAVSDNMFVHNNSKHGRRARRLDPSEGTPSYLEHATPCIKAISPSEGWTTGGATVIIIGDNFFDGLQVIFGTMLVWSELITPHAIRVQTPPRHIPGVVEVTLSYKSKQFCKGTPGRFIYTALNEPTIDYGFQRLQKVIPRHPGDPERLPKEVILKRAADLVEALYGMPHNNQEIILKRAADIAEALYSVPRNHNQLPALANTSVHAGMMGVNSFSGQLAVNVSEASQATNQGFTRNSSSVSPHGYVPSTTPQQTNYNSVTTSMNGYGSAAMSNLGGSPTFLNGSAANSPYAIVPSSPTMASSTSLPSNCSSSSGIFSFSPANMVSAVKQKSAFAPVVRPQTSPPPTCTSTNGNSLQAISGMIVPPM",binding [2]: binds
–,"endogenous EBF1 of human BJAB cells (protein, UniProt Q9UH73 1-591) MFGIQESIQRSGSSMKEEPLGSGMNAVRTWMQGAGVLDANTAAQSGVGLARAHFEKQPPSNLRKSNFFHFVLALYDRQGQPVEIERTAFVGFVEKEKEANSEKTNNGIHYRLQLLYSNGIRTEQDFYVRLIDSMTKQAIVYEGQDKNPEMCRVLLTHEIMCSRCCDKKSCGNRNETPSDPVIIDRFFLKFFLKCNQNCLKNAGNPRDMRRFQVVVSTTVNVDGHVLAVSDNMFVHNNSKHGRRARRLDPSEGTPSYLEHATPCIKAISPSEGWTTGGATVIIIGDNFFDGLQVIFGTMLVWSELITPHAIRVQTPPRHIPGVVEVTLSYKSKQFCKGTPGRFIYTALNEPTIDYGFQRLQKVIPRHPGDPERLPKEVILKRAADLVEALYGMPHNNQEIILKRAADIAEALYSVPRNHNQLPALANTSVHAGMMGVNSFSGQLAVNVSEASQATNQGFTRNSSSVSPHGYVPSTTPQQTNYNSVTTSMNGYGSAAMSNLGGSPTFLNGSAANSPYAIVPSSPTMASSTSLPSNCSSSSGIFSFSPANMVSAVKQKSAFAPVVRPQTSPPPTCTSTNGNSLQAISGMIVPPM",binding [3]: binds
